Among the data in PubChem BioAssay AID1346428 (National Center for Advancing Translational Sciences (NCATS), 2018) are activation values, retold here.

Hit rate of the full screen: of about 48,000 compounds, about 1,200 (2.5%) were called active. About 2% were inconclusive and are not listed.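 Rule for the calls: active = activation of at least 60% and not above a set upper limit (about 1 call in 100 departs from these limits); inconclusive = activation of 40% to 60%, or above that upper limit; inactive = activation under 40%.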 This is one part of the list.

This experiment deals with Probable G-protein coupled receptor 32 (Homo sapiens) (UniProt O75388). The experiment can be described thus: qHTS for Agonists of Human Resolvin D1 Receptor DRV1. Note: 0% is about no effect. The conditions noted are these: CHO-K1 GPR32 beta-arrestin PathHunter luminescence, 90 min; at 76.9 µM; active compounds read high; zero percent set by DMSO-only wells. A digest of the protocol: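 Agonism was scored as beta-arrestin recruitment to ProLink-fused GPR32 in stably transfected CHO-K1 cells, giving a chemiluminescent beta-Gal signal; compounds were incubated 90 min at 37 °C.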
Sequence of UniProt O75388 (O75388 whole entry, looked up, the tested form may be a part): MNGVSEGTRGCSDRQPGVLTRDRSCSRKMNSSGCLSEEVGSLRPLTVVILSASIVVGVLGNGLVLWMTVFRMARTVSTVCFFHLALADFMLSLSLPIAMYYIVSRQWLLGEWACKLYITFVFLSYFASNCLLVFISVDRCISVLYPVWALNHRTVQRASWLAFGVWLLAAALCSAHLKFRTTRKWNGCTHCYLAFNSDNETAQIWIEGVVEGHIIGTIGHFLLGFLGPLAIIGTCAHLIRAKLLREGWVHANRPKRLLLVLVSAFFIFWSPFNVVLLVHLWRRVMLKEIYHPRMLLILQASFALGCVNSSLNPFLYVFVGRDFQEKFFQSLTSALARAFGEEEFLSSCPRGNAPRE
For the molecule `CC(C(=O)Nc1ccccc1C(F)(F)F)n1nc(-c2ccccc2)c2c(c1=O)CCCC2` (stereo unspecified), the activation was inactive: -2.99%.
As to `CC(=O)c1ccc(N2CCN(C(=O)Nc3cccc(F)c3)CC2)cc1`, the activation was inactive: 1.42%.
Then `CCN(CC)c1ccc(C(=O)NCc2ccc3c(c2)CCN3C(C)=O)cc1`, with inactive: -19.9%; and `Cc1cc(C)c2c(-n3cccc3)c(C(=O)NCCc3ccccc3)sc2n1`, with inactive: 3.95%; and `CC(C)CC(=O)Nc1c(C(=O)N2CCN(c3ccccc3F)CC2)oc2ccccc12`, with inactive: -23.4%.
For `COc1ccc(Br)cc1CNC(=O)c1ccc2c(c1)nc1n2CCCCC1`, the activation is inactive: -4.16%.
As for `COc1cccc(C(=O)n2nc(-c3ccco3)nc2NCc2cccs2)c1`, the figure is inactive: -15.2%; as for `CCc1ccc(-c2cc3c(N4CCN(c5ccccc5)CC4)nccn3n2)cc1`, inactive: 12.8%.
As to `Cc1cccc(CN2C(=O)c3ccccc3S(=O)(=O)c3ccc(C(=O)N4CCN(c5cc(C)ccc5C)CC4)cc32)c1`, the activation was inactive: 20.4%.
Turning to `COc1ccc(NC(=O)N2CCN(c3cc(-c4noc(C)n4)ccc3C)CC2)c(OC)c1`, the activation is inactive: -7.9%.
For `COc1ccc(NS(=O)(=O)c2ccc(NS(=O)(=O)c3ccc4c(c3)OCCO4)cc2)cc1`, the activation was active: 68.3%.
On to `COc1cccc(N2CCN(Cc3nnc(-c4ccc5c(c4)OCO5)o3)CC2)c1`, for which the activation was inactive: 12.1%.
Turning to `CC(C)(C)C1CCc2c(sc(NC(=O)c3ccncc3)c2C(=O)Nc2ccccc2Cl)C1` (stereo unspecified), the activation was inactive: 0.048%.
Regarding `Cc1cccc(-c2nc3nc(C)cc(N4CCN(c5ccccc5)CC4)n3n2)c1`, the activation is inactive: -11.5%.
In the case of `CC(=O)N/N=C/c1ccc([N+](=O)[O-])o1`, the activation was active: 68%.
On to `COc1ccc(N2CCN(C(=O)CCn3cnc4onc(-c5ccc(F)cc5)c4c3=O)CC2)cc1`, for which the activation is inactive: -3.89%.
For `COc1ccc(N(CC(=O)NCc2ccc(C)cc2)S(=O)(=O)c2c(C)[nH]c(=O)[nH]c2=O)cc1`, the activation is inactive: -10.4%.
For `Cc1cc(C)cc(N2CCn3c2nc2c3c(=O)n(CCc3ccccc3)c(=O)n2C)c1`, the activation is inactive: 9.94%.
For `Cc1c(C(=O)NCc2ccccc2Cl)sc2nc3n(c(=O)c12)CCC3`, the activation is inactive: -11.5%.
As for `Cc1ccc(-c2nc3c4ccccc4n(Cc4cccc(Cl)c4)c(=O)n3n2)cc1`, the figure is inactive: -8.93%.
As for `CCN1CCN(CCCNC(=O)Cn2nc(C)n3c(cc4cc(C)ccc43)c2=O)CC1`, the figure is inactive: -10.4%; as for `CCOC(=O)Cc1ccc(NC(=O)N2CC(CC)Oc3ccccc32)cc1` (stereo unspecified), inactive: -29.4%.
For the molecule `CCc1ccc(S(=O)(=O)c2nnn3c2nc(N2CCCC(C)C2)c2cc(Cl)ccc23)cc1` (stereo unspecified), the activation was inactive: -3.76%.
As for `COc1ccc2nc(N3CCN(C(=O)c4ccco4)CC3)sc2c1`, the figure is inactive: 13.7%.
Turning to `COc1ccc(OC)c(CNC(=O)C2COc3ccccc3C2)c1` (stereo unspecified), the activation is inactive: -20.2%.
Then `O=C(CCc1ccc(O)cc1)c1c(O)cc(O)cc1O`, with inactive: 6.04%; and `COc1ccc2nc(NC(=O)c3ccc(S(=O)(=O)N4CCCC(C)C4)cc3)sc2c1` (stereo unspecified), with inactive: 0.119%.
On to `CC1=C(C(=O)Nc2ccccc2C)C(c2ccccn2)n2nc(SCc3ccccc3F)nc2N1` (stereo unspecified), for which the activation is inactive: -9.82%.
`O=C(CSc1nc(=O)n(Cc2ccco2)c2c1CCC2)NCc1ccc(F)cc1`: the activation was inactive: -9.03%.
Regarding `Cc1nc2nc(NC(=O)c3ccc(Cl)cc3)[nH]n2c(=O)c1Cc1ccccc1`, the activation was inactive: 1.88%.
Regarding `CCc1ccc(NC(=O)CSc2nc(=O)n(Cc3ccco3)c3c2CCC3)cc1`, the activation is inactive: -14.1%.
As for `Cc1ccc(S(=O)(=O)c2nnn3c2nc(N2CCN(c4ccccc4F)CC2)c2ccccc23)cc1C`, the figure is inactive: -6.46%; as for `O=c1[nH]c(SCc2ccc(Br)cc2)nc2c1CCCC2`, inactive: 35.7%.
Regarding `CC(NC(=O)Cn1c(-c2cccs2)cc2cc(F)ccc21)c1ccccc1` (stereo unspecified), the activation was inactive: -14.3%.
As to `O=C(NC1CC(=O)N(c2ccc(Cl)cc2)C1)c1cccs1` (stereo unspecified), the activation is inactive: -1.38%.
For `CCC(C)NC(=O)c1c(-c2ccccc2)c(-c2ccccc2)nn(C)c1=O` (stereo unspecified), the activation was inactive: -7.13%.
As for `COc1ccc(-c2cc(C(=O)Oc3ccc(C)c(C)c3)c3ccccc3n2)cc1`, the activation is inactive: -37.9%.
With `Cc1cccn2c(=O)c3cc(C(=O)NCc4ccccc4Cl)sc3nc12`, the activation was inactive: -9.63%.
For the molecule `C[C@H]1O[C@@H](n2cc(F)c(=O)[nH]c2=O)[C@H](O)[C@H]1O`, the activation was inactive: 3.91%.
Regarding `O=C(Cn1c(=O)n(Cc2ccc3c(c2)OCO3)c(=O)c2ccc(C(=O)NC3CCCCC3)cc21)Nc1ccccc1F`, the activation was inactive: -21.8%.
Regarding `CCOC(=O)c1cc(-c2ccccc2)n(CCCC(=O)Nc2ccc(C)cc2C)c1C`, the activation is inactive: -17.9%.
As for `Cc1ccc(C(=O)NC2(C(F)(F)F)C(=O)Nc3c2c(=O)[nH]c(=O)n3CCc2ccccc2)cc1` (stereo unspecified), the activation is inactive: 5.37%.
As for `Oc1cccc(Nc2ncnc3sc4c(c23)CCCC4)c1`, the figure is active: 66.2%; as for `CS(=O)(=O)N1CCc2cc(C(=O)NCc3ccccc3)ccc21`, inactive: 6.73%.
For the molecule `Cc1cccc(-n2c3nc(=O)n(C)c(=O)c-3cc3ccc(Cl)cc32)c1C`, the activation was inactive: -7.34%.
As for `Cc1noc2ncnc(NCc3cccc(Cl)c3)c12`, the activation is inactive: 30.9%.
`Cc1c(C(=O)N2CCC(C(=O)Nc3ccc(F)cc3)CC2)sc2nc[nH]c(=O)c12`: the activation was inactive: -3.78%.
Consider `CC(C)(C)C(=O)N1CCN(c2nc3c(F)cccc3s2)CC1`, for which the activation is inactive: -0.705%.
With `CCOc1ccc(-n2c(SCC(=O)N3CCCCC3)nc3c([nH]c4ccccc43)c2=O)cc1`, the activation was inactive: 18.7%.
On to `Cc1ccc2c(=O)c(C(=O)c3ccccc3)cn(CC(=O)Nc3ccccc3)c2n1`, for which the activation is inactive: 12.9%.
Turning to `COc1cccc(-c2nnc3n(Cc4ccccc4Cl)c(=O)c4ccccc4n23)c1O`, the activation is inactive: -3.2%.
With `O=C(NCc1ccc2c(c1)CCN2C(=O)c1ccncc1)c1ccc(Cl)cc1`, the activation is inactive: -7.01%.
Then `CC(C)Oc1ccc(CNC(=O)CCCn2c(=O)c3cccn3c3cccnc32)cc1`, with inactive: -9.28%; and `O=C(c1ccccc1)C(O)c1ccccc1` (stereo unspecified), with inactive: -13.4%; and `CCOC(=O)C(Cc1c[nH]c2ccccc12)NC(=O)COc1ccc(Cl)cc1` (stereo unspecified), with inactive: 32%.
Take `COCCN(CCOC)C(=O)c1cc2c(=O)n3ccccc3nc2n1C`: the activation is inactive: -7.69%.
`Cc1c(Cl)cccc1NC(=O)CN1C(=O)CCn2nc(-c3cccn3C)cc21`: the activation is inactive: 0.914%.
For `COc1cccc(C(=O)NC2=NC(c3ccc(N(C)C)cc3)CC(=O)N2)c1` (stereo unspecified), the activation was inactive: 9.12%.
As for `O=C(CSc1nc(-c2ccccc2)cn1-c1ccccc1)Nc1ccccc1`, the activation was inactive: -27.8%.
As for `COc1cc(-c2nc3ccc(C)cn3c2Nc2ccc(Cl)cc2)ccc1O`, the figure is inactive: 28.8%.
`CCn1c(NCc2cccc(Cl)c2)nc2ccccc21`: the activation is inactive: 32.5%.
Turning to `O=C(NCCCN1CCCCC1)c1cc(Sc2ccc(Cl)cc2)nc2ccccc12`, the activation was inactive: -23.3%.
Take `Cc1c[nH]c2ccccc12`: the activation was inactive: -2.91%.
Regarding `Cc1cc(C)c(C(=O)Nc2ccccc2)c(SCC(=O)Nc2ccc(Br)cc2C)n1`, the activation was inactive: -17.2%.
Then `O=c1[nH]c2cc([N+](=O)[O-])c([N+](=O)[O-])cc2[nH]c1=O`, with inactive: 3.21%; and `O=S(=O)(c1ccc(Br)cc1)c1nnn2c1nc(NCc1cccs1)c1sccc12`, with inactive: -12.8%; and `CC(=O)c1ccc(N2CCN(C3C(=O)c4ccccc4N3C(C)=O)CC2)cc1` (stereo unspecified), with inactive: -28.3%.
Consider `COc1ccc(-c2cc(C(=O)NCCc3ccccc3)c3cc(C(C)C)ccc3n2)cc1`, for which the activation is inactive: -20.7%.
Take `COc1ccc(-n2cc(C(=O)NCc3cccc(OC)c3)c3ccccc3c2=O)cc1`: the activation was inactive: -5.79%.
Consider `COc1ccc(Cl)cc1NC(=O)c1nn(C)c2c1CS(=O)(=O)c1ccccc1-2`, for which the activation was inactive: -2.74%.
As to `COc1ccccc1NC(=O)CCn1c(=O)oc2cc(Cl)ccc21`, the activation is inactive: -7.31%.
As to `CCOc1cc(-c2nc(-c3ccc(-c4ccc(OC)cc4)nc3OC)no2)cc(OCC)c1OCC`, the activation was inactive: 19.6%.
`COCCCNC(=O)C1CCN(c2cc(C)nc3c(-c4ccc(OC)c(OC)c4)c(C)nn23)CC1`: the activation was inactive: -10%.
As for `Cc1c(Cl)cccc1NC(=O)Cn1nc(C)c2sc3ccccc3c2c1=O`, the figure is inactive: -6.96%; as for `Cc1ccc(C)c(S(=O)(=O)c2nnn3c2nc(Nc2ccc(F)c(Cl)c2)c2sccc23)c1`, inactive: -10.7%.
Then `CCSc1nc2c(c(=O)[nH]c(=O)n2C)n1CC(O)COc1ccc(Cl)cc1` (stereo unspecified), with inactive: 9.21%; and `COc1ccc(N2CCN(C(=O)c3ccc4c(c3)CCN4S(C)(=O)=O)CC2)cc1`, with inactive: 1.54%; and `CCCCOC(=O)c1ccc(NC(=O)Cc2coc3ccc(C(C)C)cc23)cc1`, with inactive: -23.6%.
Consider `Cc1ccc2c(c1)N(C(=O)N1CCC(C(=O)NCc3ccco3)CC1)CC(C)O2` (stereo unspecified), for which the activation is inactive: -4.86%.
Take `Cc1ccc(S(=O)(=O)CCC(=O)N2CCN(c3nc4c(C)c(Cl)ccc4s3)CC2)cc1`: the activation is inactive: 25.7%.
Then `CN=C(NC#N)NCCSCc1csc(N=C(N)N)n1`, with inactive: 2.56%.
On to `COc1cc(C(=O)N2CCc3c([nH]c4ccccc34)C2c2ccccc2)cc(OC)c1OC` (stereo unspecified), for which the activation was inactive: -30.5%.
Then `Cc1cccc(C(=O)Nc2nc(-c3ccc(Br)cc3)ns2)c1`, with inactive: -12.4%; and `Cc1cccc(N(CC(=O)NCCSc2ccc(Cl)cc2)S(=O)(=O)c2ccccc2)c1C`, with inactive: -21.9%.
For `COc1ccccc1OCCn1c(-c2ccc(Br)cc2)nc2ccccc2c1=O`, the activation was inactive: -8.66%.
In the case of `CC(=O)N1CCC2(CC1)OC(=O)C(C)=C2C(=O)Nc1ccccc1C(F)(F)F`, the activation is inactive: -8.67%.
